# From PubChem BioAssay AID686971 (National Center for Advancing Translational Sciences (NCATS), 2013)
# Out of some 360,000 compounds screened, about 7,500 (2.1%) were called active. Inconclusive results, whose numbers are uncertain, are shown with a selection of clear calls. Calls follow the shape of the dose curve; as a rule, active = well fitted cell-killing curve with a large enough effect; inconclusive = small, poorly fitted or top-dose-only effect, or effect the other way, or another doubt; inactive = no such curve, though single readings can be large or run the other way. Potencies of inconclusive entries are left out as doubtful fits.
# Test: qHTS for induction of synthetic lethality in tumor cells producing 2HG: qHTS for the HT-1080-IDH1KD cell line;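 as to activity, negative = toxicity: 0% = DMSO wells and -100% = cell-free medium wells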
# Settings: HT-1080 IDH1 knockdown viability, ATP luminescence, 48 h; activity, negative = toxicity: at 46.1 µM (top of the series) unless noted
# Outline: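 Luminescent ATP read-out (CellTiter-Glo, 10 min at room temperature) after 48 h compound exposure at 37 °C gave viability of IDH1-knockdown HT-1080 cells. Activity was normalised to DMSO and cell-free wells, then fitted as concentration-response curves.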
# Potency is read from the fitted curve at half-maximal effect; tags tell the direction and shape of the fitted curve.
SMILES,Potency,"activity, negative = toxicity"
CCOC(=O)C(=Cc1ccc(Br)cc1)C(=O)OCC,active: 6.51 µM,–
CCOc1ccc(N(CC(=O)N/N=C/c2ccccn2)S(=O)(=O)c2ccc(Cl)cc2)cc1,"inconclusive [cytotoxic, single point]",–
CCCCCCn1c(=O)n2n(c1=O)C[C@]1(OC(=O)NC3CC3)CN(S(=O)(=O)c3ccc(C)cc3)C[C@]1(O)C2,inactive,–
CC(C)NC(=O)N(C)C[C@H]1OCCCC[C@@H](C)Oc2ccc(N(C)C)cc2C(=O)N([C@H](C)CO)C[C@@H]1C,inactive,–
C/C(=N\NC(=O)c1cc(C)nc2ccccc12)c1ccncc1,active: 7.31 µM,–
CC(=O)n1nc(-c2ccccc2)nc1NCc1ccc(N(C)C)cc1,inactive,–
COC(=O)C1=C(C)N(Cc2ccccc2)C(=S)N[C@H]1c1cccc(C(F)(F)F)c1,"inconclusive [cytotoxic, single point]",–
CCC(=O)N1CCN(c2ccc(NC(=O)c3ccc4c(c3)OCCO4)cc2)CC1,"inconclusive [cytotoxic, single point]",–
CCC1CCCCN1S(=O)(=O)c1ccc(C(=O)Nc2nnc(-c3ccccc3Cl)o2)cc1 (stereo not given),active: 8.2 µM,–
O=C(Cn1ncc(Cl)c(Cl)c1=O)N1CCN(Cc2ccccc2)CC1,"inconclusive [cytotoxic, single point]",–
COc1cccc(-c2cc(C(=O)Nc3cccnc3)no2)c1,active: 11.6 µM,–
Cc1nn(CC(O)CN2c3ccccc3Sc3ccccc32)c(C)c1Br (stereo not given),"inconclusive [cytotoxic, single point]",–
C=C(C)[C@@H]1CC[C@]2(C(=O)O)CC[C@]3(C)C(CCC4[C@@]5(C)CC[C@H](O)C(C)(C)C5CC[C@]43C)C12 (stereo not given in full),"inconclusive [cytotoxic, single point]",–
Cc1ccc(N(CC(=O)Nc2ccc(F)c(Cl)c2)S(=O)(=O)c2c(C)noc2C)cc1,"inconclusive [cytotoxic, single point]",–
COc1ccc(C(=O)CSC#N)cc1OC,active: 20.6 µM,–
COn1c(SC(C)C)nc2ccccc2c1=O,"inconclusive [cytotoxic, single point]",–
O=C(NN=Cc1ccc(Cl)cc1Cl)c1ccccc1,inactive,–
COc1ccc(-n2c(C)cc(C(=O)COC(=O)c3ccc(O)cc3O)c2C)cc1,"inconclusive [cytotoxic, single point]",–
Cc1cccc(NS(=O)(=O)c2ccc(C)c(C(=O)OCC(=O)Nc3cc(C)on3)c2)c1,"inconclusive [cytotoxic, partial curve, poor fit]",–
Cc1c(Cl)cccc1-n1c(SCC(=O)N2CCC(C(=O)O)CC2)nnc1-c1ccncc1,inactive,–
C=C1CCC[C@]2(C)C[C@H]3OC(=O)C(CNC(CC)CO)[C@H]3CC12 (stereo not given in full),active: 20.6 µM,–
CCCc1cc(=O)[nH]c(SCC(=O)Nc2cc(S(=O)(=O)N(CC)c3ccccc3)ccc2Cl)n1,"inconclusive [cytotoxic, partial curve, poor fit]",–
CCOc1ccc(/C=C2\SC(=S)N(CCCC(=O)NCCCN3CCOCC3)C2=O)cc1,active: 16.4 µM,–
Oc1ccccc1-c1cc(-c2ccc3c(c2)OCCO3)n[nH]1,"inconclusive [cytotoxic, partial curve, poor fit]",–

SMILES,Potency,"activity, negative = toxicity"
O=C(Nc1nc2ccccc2[nH]1)C1CCCC1,inactive,–
COc1ccc2oc(=O)c(C(=O)NCc3ccco3)cc2c1,"inconclusive [rising, single point]",–
Cc1cccc(NC(=O)Cn2c(O)c(N=NC(N)=S)c3ccccc32)c1,"inconclusive [cytotoxic, partial curve]",–
COc1ccc(-c2cc(C(=O)Nc3c(C)nn(Cc4ccccc4)c3C)no2)cc1,active: 15.8 µM,–
CCc1nc2c(OCc3ccc(Cl)cc3Cl)cccn2c1N(C)C(=O)CC(C)C,"inconclusive [cytotoxic, single point]",–
COc1cc(S(=O)(=O)NC(C)C)ccc1Cl,"inconclusive [cytotoxic, single point]",–
NNc1nnc2c3cc(F)ccc3n(Cc3ccccc3)c2n1,"inconclusive [cytotoxic, partial curve]",–
Nc1ccc(S(=O)(=O)NNC(=O)C(=O)NNc2ccccc2)cc1,"inconclusive [cytotoxic, single point]",–
CCc1ccccc1NC(=O)Cn1nnc(C(=O)NCc2cccc(OC)c2)c1N,"inconclusive [cytotoxic, single point]",–
CNCCC=C1c2ccccc2C=Cc2ccccc21,active: 14.6 µM,–
C=CCC[C@@H](Cc1ccc(F)cc1)C(=O)OC[C@@H](NC(=O)[C@@H](CC=C)CC(=O)N(CCO)Cc1ccccc1)c1ccccc1,"inconclusive [cytotoxic, single point]",–
Cc1ccc(CNc2nc(NCc3ccccc3)nc3ccsc23)c(C)c1,"inconclusive [cytotoxic, single point]",–
O=C(N/N=C/C(Br)=C/c1ccccc1)c1cnccn1,"inconclusive [cytotoxic, partial curve, poor fit]",–
CCOC(=O)[C@]12CCCC=C1N(Cc1ccccc1)C(=O)[C@H](CC(=O)NCc1cccc3ccccc13)C2,"inconclusive [cytotoxic, single point]",–
Cc1cc2c(cc(C(=O)OCC(=O)NC3CCCCC3)n2C)o1,inactive,–
COc1cccc(NC(=O)COC(=O)c2ccc(S(=O)(=O)NCc3ccco3)cc2)c1,inactive,–
CCn1c2ccccc2c2cc(CNCc3ccc(OC)cc3OC)ccc21,"inconclusive [cytotoxic, single point]",–
Clc1ccccc1/C=N/NC1=Nc2cccc3cccc1c23,"inconclusive [cytotoxic, single point]",–
CCOC(=O)c1sc(NC(=O)c2cc(-c3ccc(C)cc3)nc3ccccc23)c(C#N)c1C,"inconclusive [cytotoxic, single point]",–
Cc1cnc(C=NNC(N)=S)c2cccc(N)c12,"inconclusive [cytotoxic, single point]",–
CCC(=O)N1CCCC(C(=O)Nc2nc3ccccc3[nH]2)CC1 (stereo not given),inactive,–
COc1ccc(-c2nc(-c3ccccc3)no2)c(OC)c1,active: 14.1 µM,–
CCOC(=O)c1c(C)nc2cc(C)ccn12,–,inconclusive: -37.8%
CCN1C(=O)[C@H]2[C@@H](c3ccc(C(F)(F)F)cc3)N[C@]3(CCCN(Cc4ccccc4)C3=O)[C@H]2C1=O,inactive,–

SMILES,Potency,"activity, negative = toxicity"
COC(=O)c1cccc(NC(=O)c2nn(C)c(=O)c3ccccc23)c1,inactive,–
N#Cc1nc(-c2ccco2)oc1NCc1ccc(F)cc1,"inconclusive [cytotoxic, single point]",–
COC(=O)Nc1ccc(S(=O)(=O)N2CCN(C)CC2)cc1,inactive,–
COc1ccc(C(=O)OCc2cc(C)ccc2C)cc1S(=O)(=O)N1CCCC1,inactive,–
COc1ccc(Cl)cc1C(=O)NNC1CC(=O)N(Cc2ccc(Cl)cc2)C1=O (stereo not given),inactive,–
CCc1nn(C(C)C(=O)N2CCN(c3ccc(OC)cc3)CC2)c(=O)c2cc3occc3n12 (stereo not given),"inconclusive [cytotoxic, partial curve]",–
Cc1[nH]nc2nc(SCC(=O)NCCC3=CCCCC3)n(-c3ccc(Br)cc3)c(=N)c12,"inconclusive [cytotoxic, single point]",–
C[C@H]1CN([C@@H](C)CO)C(=O)c2cccc(NC(=O)c3nc4ccccc4s3)c2O[C@H]1CN(C)C(=O)Nc1ccc(F)cc1,inactive,–
O=C(Cn1cc(/C=C\[N+](=O)[O-])c2ccccc21)Nc1ccccc1,active: 3.66 µM,–
CN(C)C(=O)COC(=O)c1ccccc1OCC(=O)Nc1ccc(SC(F)F)cc1,inactive,–
O=C(NCCCO)/C(=C/c1ccc(-c2cccc([N+](=O)[O-])c2)o1)NC(=O)c1ccccc1,"inconclusive [cytotoxic, single point]",–
CN(C)c1ccc(-c2cc(NC=O)c3ncc(-c4ccc(F)c(Cl)c4)n3c2)cc1,"inconclusive [cytotoxic, single point]",–
O=C1/C(=C\c2cccnc2)Sc2ccccc21,"inconclusive [cytotoxic, single point]",–
CN1CCN(c2ccc(NC(=O)c3ccc4ccccc4c3)cc2)CC1,"inconclusive [cytotoxic, single point]",–
CCCN1CNc2c(c(=O)[nH]c(=S)n2-c2ccc(Cl)cc2)C1,inactive,–
COc1ccc(-c2cc(C(F)(F)F)nc(S(=O)(=O)CCCC(=O)Nc3cc(C)on3)n2)cc1OC,active: 20.6 µM,–
c1ccc2c(c1)OCC(CNc1ncnc3sccc13)O2 (stereo not given),active: 1.16 µM,–
CCc1nc2ccc(C(=O)N3CCN(c4ccccc4)CC3)cn2c1N(C)CCC(C)C,active: 6.51 µM,–
Cc1cc(C(C)(C)C)oc1C(=O)N(CC(=O)NC1CCCC1)Cc1ccccc1Cl,"inconclusive [cytotoxic, single point]",–
COc1cccc(Cn2cnc(-c3ccccc3OC)c2-c2cc(C)cc(C)c2)c1,"inconclusive [cytotoxic, single point]",–
C=CCn1cnc2c(c1=O)c1nc3ccccc3nc1n2/N=C/c1cc(OC)c(OC)c(OC)c1,"inconclusive [cytotoxic, single point]",–
COc1ccc(NC(=O)NC23CC4(C)CC(C)(CC(C)(C4)C2)C3)cc1,"inconclusive [cytotoxic, single point]",–
